Laboratory results published in PubChem BioAssay AID1645882 (National Center for Advancing Translational Sciences (NCATS), 2021).
Hit rate of the full screen: of about 16,000 compounds, about 120 (0.75%) were called active. Inconclusive results (about 4%) are left out. The call rests on the fitted dose curve; in most records, active means well fitted inhibition curve with a large enough effect; inconclusive means small, poorly fitted or top-dose-only effect; inactive means no such curve, though single readings can be large or run the other way. The list shows a part of the results.

These compounds were tested against Rap guanine nucleotide exchange factor 3 (Homo sapiens) (UniProt O95398) (assay: Validation qHTS for antagonist of cAMP-regulated guanine nucleotide exchange factor 3 (EPAC1)). Conditions: EPAC1 Rap1B-BODIPY-GDP exchange, fluorescence; series mostly up to 150 µM; activity change, negative = inhibition: at the top concentration.
How it was run: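 EPAC1 (100 nM) mixed with 250 nM RAP1B-BODIPY-GDP and 50 uM GDP; compounds in concentration series, 5 min at room temperature. Fluorescence (ex 480/em 540 nm) read every 5 min for 30 min; normalized to ATA control and DMSO.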
Further: nearly all actives have a fitted effect of over 75% in size.

UniProt O95398, sequence (O95398 whole entry, looked up): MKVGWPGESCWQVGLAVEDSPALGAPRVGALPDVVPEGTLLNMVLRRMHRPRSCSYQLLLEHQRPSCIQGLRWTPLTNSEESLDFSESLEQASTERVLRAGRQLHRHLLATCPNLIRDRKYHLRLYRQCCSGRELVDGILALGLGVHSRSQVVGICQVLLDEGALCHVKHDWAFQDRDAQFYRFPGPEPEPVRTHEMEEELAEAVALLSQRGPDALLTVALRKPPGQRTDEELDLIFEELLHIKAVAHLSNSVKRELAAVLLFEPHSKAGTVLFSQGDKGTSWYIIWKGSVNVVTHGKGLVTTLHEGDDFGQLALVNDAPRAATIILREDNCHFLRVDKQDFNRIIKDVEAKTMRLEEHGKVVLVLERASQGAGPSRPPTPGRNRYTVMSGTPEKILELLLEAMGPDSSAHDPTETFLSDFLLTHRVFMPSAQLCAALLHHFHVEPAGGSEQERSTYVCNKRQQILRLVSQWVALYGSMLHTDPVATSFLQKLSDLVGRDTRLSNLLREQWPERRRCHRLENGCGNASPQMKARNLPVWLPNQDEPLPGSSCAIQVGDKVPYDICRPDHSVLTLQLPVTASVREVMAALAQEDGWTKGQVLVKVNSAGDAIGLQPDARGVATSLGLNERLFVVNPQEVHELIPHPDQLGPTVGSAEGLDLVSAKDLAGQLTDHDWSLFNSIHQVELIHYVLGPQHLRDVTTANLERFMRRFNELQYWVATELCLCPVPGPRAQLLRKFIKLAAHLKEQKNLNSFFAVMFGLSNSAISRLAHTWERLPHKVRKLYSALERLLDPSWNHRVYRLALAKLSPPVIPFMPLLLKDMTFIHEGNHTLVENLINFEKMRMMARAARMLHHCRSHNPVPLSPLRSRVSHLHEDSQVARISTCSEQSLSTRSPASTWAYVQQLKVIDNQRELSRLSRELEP

| Compound | activity change, negative = inhibition |
| --- | --- |
| COc1ccc(-c2nc3cnc(N4CCN(C)CC4)nc3n(Cc3cccs3)c2=O)cc1 | inactive: 27.9% |
| NC(=O)CNCCC(c1ccccc1)c1ccccc1 | inactive: 15.8% [at 75.8 µM] |
| COc1cccc(N2[C@@H](CC(C)=O)c3cc(C(F)(F)F)ccc3S2(=O)=O)c1 | inactive: -4.99% |
| CC(O)C(O)[C@H]1CNc2nc(N)[nH]c(=O)c2N1 (stereo partly drawn) | inactive: 5.84% [at 75.8 µM] |
| CCCCCC#CCC#CCC#CCC#CCCCC(=O)O | inactive |
| CC1=C(C(=O)O)N2C(=O)C(NC(=O)C(N)c3ccc(O)cc3)C2SC1 (stereo not drawn) | inactive: 9.48% |
| CN(C)c1ccc(-c2cncnc2NCc2cccnc2)cc1 | inactive: 0.696% |
| NC[C@@H]1CC[C@@H](N)[C@@H](O[C@H]2[C@H](O)[C@@H](O[C@H]3O[C@H](CO)[C@@H](O)[C@H](N)[C@H]3O)[C@H](N)C[C@@H]2N)O1 | inactive: 23.5% |
| CN1CCN(c2ncc3nc(-c4ccccc4)c(=O)n(Cc4cccs4)c3n2)CC1 | inactive: -3.53% |
| Cc1noc(C)c1C(=O)N1CCC2(CC1)CCN(C(c1ccccc1)c1ccccc1)CC2 | inactive: 11.1% |
| COCCn1c(=O)c(-c2ccc(OC)cc2)nc2cnc(Nc3cccc(OC)c3)nc21 | inactive: 36.3% |
| CC(=O)OC1CC2C(C)(C)C(=O)C3OC3[C@]2(C)C2CC[C@@]3(C)C(c4ccoc4)OC(=O)C4OC43[C@]12C (stereo partly drawn) | inactive: -2.43% |
| CNC(=O)CN(CCN(CCN(CC(=O)[O-])CC(=O)NC)CC(=O)[O-])CC(=O)[O-].O.[Gd+3] | inactive |
| Cn1cc(C(F)(F)F)nc1-c1ccc(OC[C@@H](O)CNCCOc2ccc(O)c(C(N)=O)c2)cc1 | inactive: 7.86% |
| CC1(C)CC[C@]2(C(=O)O)C(O)C[C@@]3(C)C(=CCC4[C@@]5(C)CCC(O)C(C)(C)C5CC[C@@]43C)C2C1 (stereo partly drawn) | inactive: 16.6% |
| O=C(/C=C/c1ccc(O)c(O)c1)O[C@@H]1C[C@@](OC(=O)/C=C/c2ccc(O)c(O)c2)(C(=O)O)C[C@@H](O)[C@@H]1O | inactive: -11.1% |
| CN1CCCC2(CCN(C(=O)c3cccn3C)CC2)C1 | inactive: 8.06% |
| CC(C)=CCC/C(C)=C/C=C/C(C)=C/C=C/C(C)=C/C=C/C=C(C)/C=C/C=C(C)/C=C/C=C(\C)CCC=C(C)C | inactive: 18.1% |
| CC1=C(/C=C/C(C)=C/C=C/C(C)=C/C(=O)O)C(C)(C)CCC1 | inactive |
| COCC(=O)Nc1cc(C(=O)N2CCCOc3c(cccc3OC)C2)c2c(c1)nc(C1CCC1)n2C | inactive: -6.55% |
| CCNc1ncc2nc(-c3cccs3)c(=O)n(CCC#N)c2n1 | inactive: 3.25% |
| NCC1O[C@@H](OC2C(N)CC(N)C(O)C2O[C@@H]2OC(CO)C(O)C2O)C(N)C(O)C1O (stereo partly drawn) | inactive: -1.69% |
| O=c1[nH]c(=O)n([C@@H]2O[C@H](CO)[C@@H](O)[C@H]2O)cc1Br | inactive: -6.58% |
| Cc1cnc(C)c(-c2cc(F)cc3c2OC(CNC(=O)C2CCOC2)C3)n1 (stereo not drawn) | inactive: -0.911% |
| COc1ccc2ccc(=O)oc2c1CC=C(C)C | inactive: 2.22% |

| Compound | activity change, negative = inhibition |
| --- | --- |
| Cc1cccc(CNc2nc(-c3ccoc3)nc3ccccc23)c1 | inactive: 10.8% |
| OCCN1CCN(Cc2ccc3c(c2)CN(Cc2ccc4ccccc4c2)CCO3)CC1 | inactive: 8.36% |
| CC1(C)S[C@@H]2[C@H](NC(=O)[C@@H](NC(=O)N3CCNC3=O)c3ccccc3)C(=O)N2[C@H]1C(=O)O | inactive: 17.9% [at 75.8 µM] |
| COc1cc(=O)n2c(c1C(=O)NCc1ccc3c(c1)OCO3)CCN(C(=O)c1cccc(F)c1)CC2 | inactive: 18.4% |
| CC(=O)Oc1ccccc1C(=O)O | inactive |
| O=C(c1ccco1)N1CCC[C@@]2(CCN(c3ccccc3)C2)C1 | inactive: 8.71% |
| O=C(O)[C@H]1NCCC[C@H]1C(=O)O | inactive: 8.77% [at 75.8 µM] |
| c1ccc2c(-n3ccnc3)nc(-c3ccoc3)nc2c1 | inactive: 13% |
| NCCC(=O)[N-][C@@H](Cc1cnc[nH]1)C(=O)O.[Zn] | inactive: 38.8% |
| COCC(=O)Nc1cc(C(=O)N[C@H]2CCCCNC2=O)c2c(c1)nc(-c1ccncc1)n2C | inactive: -18.6% |
| Cc1cc(C(=O)NCC2Cc3cccc(-c4cncnc4)c3O2)c(C)o1 (stereo not drawn) | inactive: 13.9% |
| COc1cc(Cl)c(CN2CCOc3ccc(CN4CCCCC4CO)cc3C2)cc1OC (stereo not drawn) | inactive: 25.7% |
| NCCCCN=C(N)N | inactive |
| O=c1c(-c2ccc(F)c(F)c2)nc2cncnc2n1Cc1ccc(F)cc1 | inactive: -10.2% |
| CNS(=O)(=O)CCc1ccc2[nH]cc(C3CCN(C)CC3)c2c1 | inactive: 27.8% |
| O=c1c(-c2ccccc2)nc2cncnc2n1C1CC1 | inactive: 4.89% |
| OC(CN1CCC(Cc2ccc(F)cc2)CC1)c1ccc(Cl)cc1 (stereo not drawn) | inactive |
| CC(C)NC[C@@H](O)c1ccc(O)c(O)c1 | inactive: 7.31% [at 75.8 µM] |
| CCOC(=O)[C@@]12C[C@@H]1/C(=N/O)c1ccccc1O2 | inactive: 2.32% |
| NC(Cc1cc(I)c(Oc2cc(I)c(O)c(I)c2)c(I)c1)C(=O)O (stereo not drawn) | inactive: -5.72% |
| Cc1nc2sccn2c1CN1CCOc2ccc(CN3CCN(c4ccc(F)cc4)CC3)cc2C1 | inactive: 2.99% |
| C[C@@H](CN=[N+]=[N-])CN1CC[C@H](NC(=O)OCc2ccccc2)CCC1=O | inactive: 16.9% |
| COc1cc(=O)n2c(c1C(=O)N(C)Cc1ccsc1)CCN(Cc1cnn(C)c1C)CC2 | inactive: 5.04% |
| CCc1nc2cc(C(=O)N(C)CC3COCCO3)cc(NC(=O)c3ccccc3OC)c2n1C (stereo not drawn) | inactive: 6.57% |
| O=S(=O)(c1ccccc1)N1CCC2(CCN(c3ncccn3)CC2)CC1 | inactive: -5.12% |

| Compound | activity change, negative = inhibition |
| --- | --- |
| CCC1(C2CCN(Cc3cc4ccccc4o3)CC2)NC(=O)N(CC2COc3ccccc3O2)C1=O (stereo not drawn) | inactive: -16.9% |
| Cc1cnc(CNc2ncncc2-c2ccccc2C)cn1 | inactive: -0.418% |
| CN(C)c1ncc2nc(-c3ccc(F)cc3)c(=O)n(C[C@H]3CCCO3)c2n1 | inactive: 5.37% |
| C=CCN1C(=O)C(CC(C)C)NC1=S (stereo not drawn) | inactive |
| Cc1ccc(C(=O)Nc2cccc(-c3nc(CNC(=O)c4ccccc4-n4cccn4)c(C)o3)c2)s1 | inactive: 8.84% |
| FC(F)(F)c1ccccc1-c1nc(NCc2cccnc2)c2ccccc2n1 | inactive: 2.68% |
| CC(O)[C@H]1CC[C@H]2[C@@H]3CC[C@@H]4C[C@@H](O)CC[C@]4(C)[C@H]3CC[C@]12C (stereo partly drawn) | inactive: 5.4% |
| CC(=O)N1CCN(c2ccc(OC[C@H]3CO[C@](Cn4ccnc4)(c4ccc(Cl)cc4Cl)O3)cc2)CC1 | inactive |
| O=C(c1ccncc1)N1CCC2(CCCN(Cc3ccccc3)C2)CC1 | inactive: 18.5% |
| CS(=O)(=O)N1CCC2(CC1)CN(c1ccccc1)C2 | inactive: -5.33% |
| CCCCCCC[n+]1ccc(/C=C/c2c(C)[nH]c3ccccc23)cc1 | inactive: 54% |
| CC(=O)[C@H]1CC[C@H]2[C@@H]3CCC4=CC(=O)CC[C@]4(C)[C@H]3CC[C@]12C | inactive |
| CC(=O)OC1CC[C@@]2(C)C3CC[C@@]4(C)C(CC5O[C@@]6(CCC(C)CO6)C(C)C54)C3CC[C@@H]2C1 (stereo partly drawn) | inactive: -12.7% |
| O=c1cnc2cncnc2n1Cc1ccccc1 | inactive: 11.2% |
| O=C(CCCCCCCCC#CI)Oc1ccccc1 | inactive: 27.5% |
| COc1cc(=O)n2c(c1C(=O)N(C)Cc1nonc1C)CCN(Cc1ccccc1Cl)CC2 | inactive: 17% |
| COc1ccc(C(=O)N2CCC3(CC2)CN(Cc2ccc(C#N)cc2)C3)cc1 | inactive: -7.07% |
| C[C@@H]1CCC(=O)N(C[C@@H](C)CSc2ccc(Br)cc2)CC1 | inactive: -14.1% |
| COCC1CCCN(c2nc(CN3CCN(C(=O)c4ccco4)CC3)nc3ccccc23)C1 (stereo not drawn) | inactive: -0.794% |
| COC(=O)C[C@H]1c2cc(C(F)(F)F)ccc2S(=O)(=O)N1C1CCCCC1 | inactive: -6.48% |
| C=CCCCCCCCCCCCc1ccco1 | inactive: -11.1% |
| CCOC(=O)c1ccc(-c2c(-c3ccc4c(c3)OCO4)noc2-c2ccsc2)cc1F | inactive: 0.926% |
| CN[C@@H]1[C@@H](O)[C@@H](O[C@@H]2[C@@H](O)[C@H](O[C@H]3O[C@H](CN)[C@@H](O)[C@H](O)[C@H]3O)[C@@H](N)C[C@H]2NC(=O)C(O)CN)OC[C@]1(C)O (stereo partly drawn) | inactive: 23.6% |
| F[Si-2](F)(F)(F)(F)F | inactive: -7.94% |
| COc1ccccc1CN1CCOc2ccc(C(C)(O)CN(C)C)cc2C1 (stereo not drawn) | inactive: 5.61% |

| Compound | activity change, negative = inhibition |
| --- | --- |
| O=C(O)CCCCC(=O)O | inactive: 0.379% |
| C[C@H]1OC(=O)CC[C@@H]2[C@]1(C)CCC1[C@@]2(C)CC[C@@]2(C)C3CC(C)(C)CC[C@]3(CO)CC[C@]12C (stereo partly drawn) | inactive: 22.4% |
| CN1CCN(c2ncc3nc(-c4cn(C)c5ccccc45)c(=O)n(Cc4cccs4)c3n2)CC1 | inactive: 13.2% |
| Cc1ccc(CN2[C@H](C)[C@H](c3ccccc3)OCCS2(=O)=O)cc1 | inactive: -14.1% |
| CN(CCO)C(=O)c1cn(C2CCN(Cc3ccc4ccccc4c3)CC2)nn1 | inactive: 4.33% |
| CCCCCCCC(=O)OC[C@H](CO)OC(=O)CCCCCCC | inactive: -8.3% [at 15.3 µM] |
| C[C@H]1C[C@@H]2[C@@H]([C@@H](O)C[C@@]3(C)[C@H]2CC[C@]3(O)C(=O)CO)[C@@]2(C)C=CC(=O)C=C12 | inactive: 21.1% [at 75.8 µM] |
| O=C(/C=C/c1ccccc1)OC1CC(O)C2(O)C=CO[C@@H](OC3OC(CO)C(O)C(O)C3O)C12 (stereo partly drawn) | inactive: -6.68% |
| CN(C)CCOC(c1ccccc1)c1ccccc1 | inactive |
| CN1CCc2cccc3c2[C@@H]1Cc1ccc(O)c(O)c1-3 | inactive: -7.21% |
| CC(O)C(=O)O (stereo not drawn) | inactive: 3.25% |
| N#Cc1cccc(NC(=O)N2CCCC3(CCN(C(=O)c4csnn4)CC3)C2)c1 | inactive: 21.1% |
| CCC1CN(CC(=O)N(C)Cc2nc3ccccc3[nH]2)Cc2cc(OC)ccc2O1 (stereo not drawn) | inactive: 12.9% |
| NC(=S)N/N=C/c1cccnc1 | inactive: 7.36% |
| Cc1c(C2CCN(CCc3ccccc3)CC2)noc1-c1ccc(Cl)cc1 | inactive |
| COc1ccc2cc1Oc1ccc(cc1)CC1c3cc(c(OC)cc3CCN1C)Oc1c(OC)c(OC)cc3c1C(C2)N(C)CC3 (stereo not drawn) | inactive: -13.8% |
| CN1C2CCC1CC(OC(c1ccccc1)c1ccccc1)C2 (stereo not drawn) | inactive: 4.92% [at 75.8 µM] |
| Cc1cccc(C(=O)NCc2nc(-c3ccccc3NC(=O)C3CCCO3)oc2C)c1 (stereo not drawn) | inactive: 20.8% |
| Cc1cnc(-n2ncc(C(=O)N(C)CC3CCCN(C)C3)c2C2CC2)nc1-c1cccs1 (stereo not drawn) | inactive: -10.3% |
| CCC1CN(CC(=O)NC(C)CO)Cc2cc(OC)ccc2O1 (stereo not drawn) | inactive: 14.1% |
| NCCCCCCNS(=O)(=O)c1cccc2c(Cl)cccc12 | inactive |
| Cc1cc2ccccc2c[n+]1C1CCCCC1 | inactive: 18.9% |
| CCC(C)(C)OC(=O)N[C@@H](Cc1c[nH]c2ccccc12)C(=O)N[C@@H](CCSC)C(=O)N[C@@H](CC(=O)O)C(=O)N[C@@H](Cc1ccccc1)C(N)=O | inactive: 29% |
